Measured values published in PubChem BioAssay AID488969 (Vanderbilt High Throughput Screening Facility, 2010).
The full ranking holds about 110,000 compounds; the median of “z-score” is about -0.1, and the highest 2% start at about 2. The list shows a part of the results.

Molecular target: Metabotropic glutamate receptor 8 (Rattus norvegicus) (UniProt P70579)
Experiment: rat mGluR8 modulators via GIRK flux, primary screen, cell-based, thallium flux, HTS (AID 488969)
Settings: HEK293 rat mGluR8, GIRK (G protein-gated inwardly rectifying potassium channel) thallium flux, FluoZin2; at 10 µM; stronger effect = higher value; submaximal glutamate (EC20) added with thallium

UniProt P70579, sequence (P70579 whole entry, looked up): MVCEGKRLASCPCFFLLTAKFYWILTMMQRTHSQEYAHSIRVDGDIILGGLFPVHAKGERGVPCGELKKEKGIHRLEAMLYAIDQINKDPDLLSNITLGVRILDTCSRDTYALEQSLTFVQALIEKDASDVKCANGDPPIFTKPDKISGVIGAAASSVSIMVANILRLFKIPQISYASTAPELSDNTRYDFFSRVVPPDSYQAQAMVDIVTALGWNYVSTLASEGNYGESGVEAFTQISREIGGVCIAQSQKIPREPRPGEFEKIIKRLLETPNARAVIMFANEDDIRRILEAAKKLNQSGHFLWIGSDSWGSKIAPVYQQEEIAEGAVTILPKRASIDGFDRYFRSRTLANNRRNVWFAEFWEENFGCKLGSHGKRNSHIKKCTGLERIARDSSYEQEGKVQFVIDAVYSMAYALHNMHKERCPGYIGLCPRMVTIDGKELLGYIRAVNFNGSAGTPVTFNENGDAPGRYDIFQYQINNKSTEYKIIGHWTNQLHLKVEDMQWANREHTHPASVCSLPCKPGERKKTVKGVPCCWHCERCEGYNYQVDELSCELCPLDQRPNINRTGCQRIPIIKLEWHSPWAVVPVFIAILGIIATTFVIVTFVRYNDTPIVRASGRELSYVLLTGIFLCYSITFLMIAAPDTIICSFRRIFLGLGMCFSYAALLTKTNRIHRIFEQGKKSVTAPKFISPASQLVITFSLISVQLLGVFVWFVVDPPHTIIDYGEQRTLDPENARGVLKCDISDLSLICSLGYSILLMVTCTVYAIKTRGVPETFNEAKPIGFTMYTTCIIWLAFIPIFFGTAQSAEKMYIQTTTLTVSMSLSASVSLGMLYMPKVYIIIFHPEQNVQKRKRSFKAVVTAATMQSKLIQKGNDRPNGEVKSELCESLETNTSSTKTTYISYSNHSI

Structure (SMILES)	z-score
NC(=O)c1ccc(NC(=O)COC(=O)CC(NC(=O)c2ccccc2Cl)c2ccccc2)cc1 (stereo unspecified)	1.26
Cc1ccc(/C([O-])=C(/C(=S)NCc2ccco2)[n+]2ccccc2)cc1	-0.112
CSCCNC(=O)c1ccc(C(C)(C)C)cc1	-0.121
Cc1ccc(C(C(=O)NC2CCCC2)N(Cc2cccs2)C(=O)c2csnn2)o1 (stereo unspecified)	0.328
O=C(Nc1ccc(Cl)cn1)c1ccc2ccccc2n1	-0.314
CCN1CCCC1CNC(=O)C(=O)Nc1ccccc1OC (stereo unspecified)	0.00956
CC1CCCCN1CC(=O)NC(=O)NCc1ccccc1 (stereo unspecified)	-0.261
COc1ccc(S(=O)(=O)N2CCOCC2)cc1OC	0.00146
COc1ccc(NC(=O)CN(c2ccc(C)cc2)S(C)(=O)=O)c(OC)c1	-0.155
Nc1cc(Cl)nc(N/N=C/c2ccc([N+](=O)[O-])cc2)n1	-0.0913
CCC1(CC)Cc2ccccc2-c2nc(NCCO)[nH]c(=O)c21	-0.365
CCn1cc(C(=O)NCc2ccccc2)c(=O)c2cc(F)c(N3CCN(C(=O)c4ccco4)CC3)cc21	-0.668
CN1CCN(C(=S)c2ccc(N(C)C)cc2)CC1	-0.222
CCOC(=O)CC(=O)CSc1nc(N)c(C#N)c(-c2ccc(F)cc2)c1C#N	-0.328
O=C(NNc1cccc(Cl)n1)Nc1ccccc1Cl	0.0179
COc1ccc(OC)c(C2NC(=O)NC(C)=C2C(=O)Nc2ccc(C)cc2C)c1 (stereo unspecified)	0.112
Cc1cccc(CC2SC(N3CCN(c4ccccc4)CC3)=NC2=O)c1 (stereo unspecified)	-0.218
O=C(CSc1ncnc2c1cnn2-c1ccccc1)Nc1ccccc1	-0.0107
CCOC(=O)c1c(/N=C/C2C(=O)CCCC2=O)sc(C)c1C	-0.157

Structure (SMILES)	z-score
Cc1ccc(C(=O)N(Cc2nc(-c3ccc(C)cc3)no2)C(C)C)cc1	0.444
COc1cccc(NC(=O)Nc2cc(C)ccc2F)c1	-0.527
CCOC(=O)c1nc(NCc2cccnc2)c2ccccc2n1	-0.241
CSc1nc(Oc2ccc3ccccc3c2)c2ccccc2n1	-0.191
O=C(CCSc1nc(-c2ccco2)cc(C(F)(F)F)n1)N1CCN(c2ccccc2)CC1	-0.0512
COCCCN(CCCN)Cc1ccco1	0.224
CCOc1ccc(C2Sc3ccccc3NC3=C2C(=O)OC3)cc1 (stereo unspecified)	-0.1
CC(=O)Nc1cccc(NC(=O)CSc2ccc(C(F)(F)F)cc2[N+](=O)[O-])c1	-0.443
CCOc1ccc(-c2nc(C#N)c(NCC3CCCO3)o2)cc1 (stereo unspecified)	-0.471
COc1ccc(/C=C(/NC(=O)c2ccccc2)C(=O)N/N=C/c2ccc3c(c2)OCO3)cc1OC	-0.129
CC1=C(C)/C(=N\OC(=O)/C=C/c2ccccc2)C=CC1=O	0.0984
COc1ccccc1C1(CC(=O)Nc2nccs2)CCOC(C(C)C)C1 (stereo unspecified)	-0.148
O=C(CSc1ccccc1Cl)NC1CCCc2ccccc21 (stereo unspecified)	-0.386
C=CCSc1nnc(-c2cc(Br)ccc2N)c(=O)[nH]1	-0.306
CCCc1nc(-c2cc3ccc(C)cc3[nH]c2=O)no1	0.0329
CCOC(=O)c1ccc(S(=O)(=O)NCC(c2ccc(N(C)C)cc2)c2c[nH]c3ccccc23)cc1 (stereo unspecified)	0.201
COc1ccc(/C=N/NC(=O)c2nc(-c3ccccc3)n(-c3ccccc3)n2)cc1	-0.277
CC(=O)C1=C(O)C(=O)N(CCc2ccccc2)C1c1ccccc1[N+](=O)[O-] (stereo unspecified)	-0.805
Cc1ccnc2nc(C(=O)OCC(=O)NCCc3ccc(Cl)cc3)nn12	-0.304

Structure (SMILES)	z-score
Clc1ccc(-c2cc(COc3ccccc3)no2)cc1Cl	-0.494
Nn1c(CN2CCCCC2)nc2ccccc2c1=O	0.926
COCCNCC(=O)NCC12CC3CC(CC(C3)C1)C2	-0.127
CCOC(=O)c1ccccc1NC(=O)COc1ccccc1	-0.516
Cc1occc1C(=O)Nc1sc2c(c1C(N)=O)CCCCC2	-1.05
Cc1ccc(OCC(=O)Nc2ccc(-c3nc4ncccc4o3)cc2)cc1	0.339
CN(C)CCCn1c(SCC(=O)Nc2sc3c(c2C#N)CCCC3)nnc1-c1ccncc1	-0.999
Cc1ccc(OCCCn2c(CO)nc3ccccc32)cc1	-0.0846
Nc1cc(-c2ccccc2)nn1Cc1ccc(Cl)cc1	-0.279
CCC(=O)OCC(=O)Nc1cc(C)c(C)cc1[N+](=O)[O-]	-0.181
COc1ccc(C2CC(c3cccs3)=Nc3ccccc3S2)cc1 (stereo unspecified)	-0.0545
CCC1(C)Cc2ccccc2-c2nc(NCCO)n(-c3ccccc3)c(=O)c21 (stereo unspecified)	-0.125
CCCn1nnc(NC(=O)c2ccco2)n1	1.49
CNC(=O)/C(C#N)=C\c1ccc(CNS(=O)(=O)c2ccccc2)o1	0.0288
CC(NC(=O)c1ccccc1Br)c1ccc2c(c1)CCCC2 (stereo unspecified)	-0.0813
O=[N+]([O-])c1ccc(Oc2ccc(-c3cnc4ccccc4n3)cc2[N+](=O)[O-])cc1	0.399
CC1CCc2nc(NCCO)nc(C(F)(F)F)c2C1 (stereo unspecified)	-0.418
Cc1occc1C(=O)NCCCCc1ccccc1	-1.1
